Data from the supplement of paper PMC11417369.
Some of the results follow.

Test system: PfSIP2 AP2 domain 1 (GST-tagged)
Experiment: gcPBM binding intensity (ln(normalized median fluorescence intensity)); higher = stronger DNA binding
Outline: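 GST-tagged P. falciparum DNA-binding domains, expressed in E. coli (about 25 μg on average), were applied for 1 h to an Agilent 4 × 180k array of primer-extended double-stranded 36-bp intergenic genomic probes plus negative controls. The binding buffer was 1× PBS with 1% milk, 0.2 mg/ml BSA, 0.5% salmon testes DNA and 0.03% Triton X-100. Bound protein was detected with Alexa488 anti-GST antibody and scanned at 488 nm. Binding intensity is the highest Masliner-normalised natural-log median intensity across replicate spots of either probe orientation.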

Row | Sequence | gcPBM binding intensity (ln)
1 | CATGACATAAAAAATATACACACTATAATATATATA [CACACA_site1402] | 7.62
2 | ATGAAAATTTATATTGCACACATAGGGAATAAAAAA [CACACA_site8667] | 7.42
3 | AAATATATTATATTTAGTACGCATATATAATATGCA [XGTACX_site4835] | 6.87
4 | AGTTAATTAATAGGCACACATATATATGTATAAATA [CACACA_site523] | 7
5 | ACCATATAAATAAACACACACACACCCATATATATA [CACACA_site2321] | 7.76
6 | TATATATCTATATTTACACACAGTTACTATGTAGAT [CACACA_site7532] | 6.78
7 | GTTAAACTTAATATCGGTACACACACAAGATAAGAA [XGTACX_site1660] | 7.45
8 | ATAATATGTATAATCACACATTTTTCTTTTAAGACA [CACACA_site5297] | 6.82
9 | TATTTTTTTTGTCATATATAAGAAACGCTCTTCTTT [TGCATGCA_negctrl_site127] | 6.94
10 | ATATTTATATTTTCATGTACGTATTTTTATATATAT [XGTACX_site8478] | 7.47
11 | TGAAATAAAATTTGTACACACATATTTATTTATATA [CACACA_site6421] | 6.86
12 | TGCATTATATTAAATTTTTTATTTGTTGATGTTATA [GTGCAC_negctrl_site371] | 6.76
13 | AAATAAAAGATATTTTTACACACTTTTGATGAGATC [CACACA_site9000] | 6.75
14 | ATATATATACATATAACACACACATATATATATATA [CACACA_site8827] | 9.22
15 | TTGTATTTATTTATGGGAGGATTATAATCATTGTAG [GTGCAC_negctrl_site268] | 7.21
16 | TAATTCACATTTTATACACACATTCGAACCTTTTTT [CACACA_site3341] | 6.92
17 | ATTTTTATTAGTTATTGTACTTATTATTTATTAATT [XGTACX_site2568] | 7.03
18 | TATAGATATATACGGTGTACATACATAAAAAAAAAA [XGTACX_site1648] | 7.27
19 | TATAGTCAACTAGTCACACATATAATTATATATATA [CACACA_site5872] | 7.95

Row | Sequence | gcPBM binding intensity (ln)
20 | TATAAAGAAATCATTACACACAAATAAATACATACA [CACACA_site2675] | 7.05
21 | GGTTAGACGAAATATACATGCAATGGAAAATAAGTT [TGCATGCA_site23] | 6.97
22 | ATATTAATTTCTCATGCATGTTCTTCCCAATTGTAA [TGCATGCA_site425] | 7.19
23 | TCATCATGTATGTACACACATACATATATTATGTAC [CACACA_site1386] | 7.01
24 | CTTTTTGAAATATTAACACACATTTTGTTAATGAAT [CACACA_site6087] | 6.99
25 | CACAAGAAAATTCACACACACACATATATATATATA [CACACA_site3880] | 9.31
26 | TCCTTAATTCAAAAAATAATATCTTATATTTCAAAT [CACACA_negctrl_site1592] | 6.83
27 | GGAATAAAGACAGCACGTACATATCTTACGAAGCTC [XGTACX_site3918] | 6.97
28 | AACACTCAAAAAAATTTAAATAAAAAAAAAAAAAAA [CACACA_negctrl_site680] | 6.91
29 | ATGATTTTTTTTATTTTTTAGCTAGAGCTAGCTTAT [CACACA_negctrl_site433] | 6.81
30 | TATGGAAGAAAATATACACACAAAAAAAAAAAATGG [CACACA_site4924] | 6.99
31 | ATATGTTAAAAATTCACACAAAAAAGTATACAGATA [CACACA_site4179] | 7.03
32 | TATGAATGCTTTTATGCACACGTACAAAAATATTAT [CACACA_site8851] | 7.22
33 | TTACCTATTCTAAAATGTACACATTATATATGTGCT [XGTACX_site5776] | 7.2
34 | ACATGTTTCATATGTTGTACTAACTTAAATATAAAT [XGTACX_site6412] | 7.21
35 | TTGTACATCTTTTGCACACGTAATGTTATTAAAATA [CACACA_site4827] | 7.51
36 | TGTATATTTGTTGTTACACACATATATTTTTTTTTT [CACACA_site128] | 6.92
37 | TTAACTATAATAAAATGTACATATGTAACATATATA [XGTACX_site7790] | 7.06
38 | TTATAACAAAAAATTAAAGAAAGAGAATAAGTGAAA [CACACA_negctrl_site975] | 7.11

Row | Sequence | gcPBM binding intensity (ln)
39 | AGGTCCTACACCAATAAATATCATATATATATTATA [CACACA_negctrl_site568] | 6.98
40 | TTGATATCTTTTTTTTGTACATATATTTATAAGTAA [XGTACX_site3538] | 6.9
41 | TTTTAGAGTGATATATATTAACTTTTAATAAAAAAA [CACACA_negctrl_site611] | 6.71
42 | AAAATATAAGCCACTACACACATATATAAATGTATA [CACACA_site2639] | 7
43 | TTTTTTTAAATTATATGTACATAATTTTAATTTTAT [XGTACX_site5086] | 7
44 | GTTATACACATATATACACACATATGTAGATATATA [CACACA_site7529] | 7.01
45 | TAAAGTACAGGAGTAAATTGAAAAAAAAAAAAAAAA [CACACA_negctrl_site1410] | 6.76
46 | TATAATATTCCTTTTTAACACACATATGAACAAATA [CACACA_site7932] | 7.04
47 | ATAAATAAATAAATACGTACATATATATATATATAT [XGTACX_site8838] | 8.89
48 | ATACATATATTTTTATGTACATATATTTTTTTTGTA [XGTACX_site4546] | 7.15
49 | ATAATGATTATAATATGTACATAAATATATATATTA [XGTACX_site5029] | 7.2
50 | AAACAATACATATATTGTACATATATTATATTATAT [XGTACX_site8136] | 7
51 | CGGATCTATAAGTGTACACAATCTAGCGAAAAGTTT [CACACA_site4932] | 7.06
52 | TTAGAAATTCATTTTACACACAATTCAAAAGAATGT [CACACA_site2104] | 6.64
53 | AATTTGAAATAAAGTAGTACAGTATATAAAAATATA [XGTACX_site128] | 6.99
54 | AAAAAATCAAAACACACACACACACCCAAAAAAAAA [CACACA_site1444] | 7.04
55 | ATAAAATAAAAAAGTAGTACACACTTCACGATATTT [XGTACX_site8289] | 7.18
56 | ATTATGTTATATATATGTACATATATAATGTTCATA [XGTACX_site6184] | 7.14
